Reference: paper PMC9911399, “Two distinct binding modes provide the RNA-binding protein RbFox with extraordinary sequence specificity”
Where a chain is given by its changes, count along the chain named. The list shows a part of the results.

T1: RBFOX1 RRM RbFoxmut (Fox-RRM*) (Homo sapiens, UniProt Q9NWB1 109-208, R118D;E147R;N151S;E152T)
T1 sequence: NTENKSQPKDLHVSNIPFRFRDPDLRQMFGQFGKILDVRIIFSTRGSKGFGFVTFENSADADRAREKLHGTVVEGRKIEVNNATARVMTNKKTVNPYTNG

B1: CAAGACC (DNA:RNA)
RNA: GGGAGACCGGAAUUCAGAUUGUCCCAAGACCUUAAAUCCCGUCGUAGCCACCA
DNA 1: CAATCTGAATTCCGGTCTCCC
DNA 2: TGGTGGCTACGACGGGATT
B2: CACUCCA (DNA:RNA)
RNA: B1 RNA with A27C, G28U, A29C, C31A
DNA 1: CAATCTGAATTCCGGTCTCCC
DNA 2: TGGTGGCTACGACGGGATT
B3: AAGCAGC (DNA:RNA)
RNA: B1 RNA with C25A, A27G, G28C, C30G
DNA 1: CAATCTGAATTCCGGTCTCCC
DNA 2: TGGTGGCTACGACGGGATT
B4: ACCGAGC (DNA:RNA)
RNA: B1 RNA with C25A, A26C, A27C, C30G
DNA 1: CAATCTGAATTCCGGTCTCCC
DNA 2: TGGTGGCTACGACGGGATT
B5: CAGUAGA (DNA:RNA)
RNA: B1 RNA with A27G, G28U, C30G, C31A
DNA 1: CAATCTGAATTCCGGTCTCCC
DNA 2: TGGTGGCTACGACGGGATT
B6: GCCGGUC (DNA:RNA)
RNA: B1 RNA with C25G, A26C, A27C, A29G, C30U
DNA 1: CAATCTGAATTCCGGTCTCCC
DNA 2: TGGTGGCTACGACGGGATT
B7: ACCCAAA (DNA:RNA)
RNA: B1 RNA with C25A, A26C, A27C, G28C, C30A, C31A
DNA 1: CAATCTGAATTCCGGTCTCCC
DNA 2: TGGTGGCTACGACGGGATT
B8: CGCUUUC (DNA:RNA)
RNA: B1 RNA with A26G, A27C, G28U, A29U, C30U
DNA 1: CAATCTGAATTCCGGTCTCCC
DNA 2: TGGTGGCTACGACGGGATT
B9: AAAUCCG (DNA:RNA)
RNA: B1 RNA with C25A, G28U, A29C, C31G
DNA 1: CAATCTGAATTCCGGTCTCCC
DNA 2: TGGTGGCTACGACGGGATT
B10: UAAUUUC (DNA:RNA)
RNA: B1 RNA with C25U, G28U, A29U, C30U
DNA 1: CAATCTGAATTCCGGTCTCCC
DNA 2: TGGTGGCTACGACGGGATT
B11: AUAGAGU (DNA:RNA)
RNA: B1 RNA with C25A, A26U, C30G, C31U
DNA 1: CAATCTGAATTCCGGTCTCCC
DNA 2: TGGTGGCTACGACGGGATT
B12: AUGUAUC (DNA:RNA)
RNA: B1 RNA with C25A, A26U, A27G, G28U, C30U
DNA 1: CAATCTGAATTCCGGTCTCCC
DNA 2: TGGTGGCTACGACGGGATT
B13: CAACAGG (DNA:RNA)
RNA: B1 RNA with G28C, C30G, C31G
DNA 1: CAATCTGAATTCCGGTCTCCC
DNA 2: TGGTGGCTACGACGGGATT
B14: CUAGCUU (DNA:RNA)
RNA: B1 RNA with A26U, A29C, C30U, C31U
DNA 1: CAATCTGAATTCCGGTCTCCC
DNA 2: TGGTGGCTACGACGGGATT
B15: UAAGGCG (DNA:RNA)
RNA: B1 RNA with C25U, A29G, C31G
DNA 1: CAATCTGAATTCCGGTCTCCC
DNA 2: TGGTGGCTACGACGGGATT
B16: CAAGGUC (DNA:RNA)
RNA: B1 RNA with A29G, C30U
DNA 1: CAATCTGAATTCCGGTCTCCC
DNA 2: TGGTGGCTACGACGGGATT
B17: UCCUGCA (DNA:RNA)
RNA: B1 RNA with C25U, A26C, A27C, G28U, A29G, C31A
DNA 1: CAATCTGAATTCCGGTCTCCC
DNA 2: TGGTGGCTACGACGGGATT
B18: UAUAAUG (DNA:RNA)
RNA: B1 RNA with C25U, A27U, G28A, C30U, C31G
DNA 1: CAATCTGAATTCCGGTCTCCC
DNA 2: TGGTGGCTACGACGGGATT
B19: GGUCUCG (DNA:RNA)
RNA: B1 RNA with C25G, A26G, A27U, G28C, A29U, C31G
DNA 1: CAATCTGAATTCCGGTCTCCC
DNA 2: TGGTGGCTACGACGGGATT
B20: CGAGCUC (DNA:RNA)
RNA: B1 RNA with A26G, A29C, C30U
DNA 1: CAATCTGAATTCCGGTCTCCC
DNA 2: TGGTGGCTACGACGGGATT
B21: AUGAGUC (DNA:RNA)
RNA: B1 RNA with C25A, A26U, A27G, G28A, A29G, C30U
DNA 1: CAATCTGAATTCCGGTCTCCC
DNA 2: TGGTGGCTACGACGGGATT
B22: UAGGGAC (DNA:RNA)
RNA: B1 RNA with C25U, A27G, A29G, C30A
DNA 1: CAATCTGAATTCCGGTCTCCC
DNA 2: TGGTGGCTACGACGGGATT
B23: CACGCCA (DNA:RNA)
RNA: B1 RNA with A27C, A29C, C31A
DNA 1: CAATCTGAATTCCGGTCTCCC
DNA 2: TGGTGGCTACGACGGGATT
B24: GCCAGCC (DNA:RNA)
RNA: B1 RNA with C25G, A26C, A27C, G28A, A29G
DNA 1: CAATCTGAATTCCGGTCTCCC
DNA 2: TGGTGGCTACGACGGGATT
B25: AAAUAAA (DNA:RNA)
RNA: B1 RNA with C25A, G28U, C30A, C31A
DNA 1: CAATCTGAATTCCGGTCTCCC
DNA 2: TGGTGGCTACGACGGGATT
B26: UGCCUUU (DNA:RNA)
RNA: GGGAGACCGGAAUUCAGAUUGUCCUGCCUUUUUAAAUCCCGUCGUAGCCACCA
DNA 1: CAATCTGAATTCCGGTCTCCC
DNA 2: TGGTGGCTACGACGGGATT
B27: CUGGCUU (DNA:RNA)
RNA: B1 RNA with A26U, A27G, A29C, C30U, C31U
DNA 1: CAATCTGAATTCCGGTCTCCC
DNA 2: TGGTGGCTACGACGGGATT
B28: AGACCCU (DNA:RNA)
RNA: B26 RNA with U25A, C27A, U29C, U30C
DNA 1: CAATCTGAATTCCGGTCTCCC
DNA 2: TGGTGGCTACGACGGGATT
B29: UAAAUCC (DNA:RNA)
RNA: B1 RNA with C25U, G28A, A29U
DNA 1: CAATCTGAATTCCGGTCTCCC
DNA 2: TGGTGGCTACGACGGGATT
B30: AUGUGCA (DNA:RNA)
RNA: B1 RNA with C25A, A26U, A27G, G28U, A29G, C31A
DNA 1: CAATCTGAATTCCGGTCTCCC
DNA 2: TGGTGGCTACGACGGGATT

Experiments:
[1] = target: T1, RBFOX1 RRM RbFoxmut (Fox-RRM*); assay: EMSA; HiTS-Eq, 1 nM pool, 10 min; buffer printed only for the single-RNA assays: 10 mM Tris pH 7.5, 150 mM NaCl, 3.4 mM EDTA, 0.001% NP-40, 30 C; details: tags: His6 N-terminal (pET28a); label: 5' 32P
In short: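 A pool of RNA with 7 randomized nucleotides, 5′-radiolabelled and with DNA-annealed flanks, was equilibrated at 1 nM for 10 min in 50 µL with purified RbFox RRM, wild type or mutant, across increasing protein concentrations. Free RNA was separated by 8% native PAGE, excised, reverse-transcribed, barcoded by PCR and sequenced. Relative association constants were obtained from read-count changes of each RNA species versus the control reaction and normalised to the cognate motif.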

[2] = target: T1, RBFOX1 RRM RbFoxmut (Fox-RRM*); assay: competition; 10 mM Tris pH 7.5, 150 mM NaCl, 3.4 mM EDTA, 0.001% NP-40, 30 C; details: tags: His6 N-terminal (pET28a)

Row | Binder | binding signal [1] | binding signal [2]
1 | B1 | 0.0774 KA relative to UGCAUGU | –
2 | B2 | 0.0809 KA relative to UGCAUGU | –
3 | B3 | 0.0629 KA relative to UGCAUGU | –
4 | B4 | 0.0932 KA relative to UGCAUGU | –
5 | B5 | 0.122 KA relative to UGCAUGU | –
6 | B6 | 0.21 KA relative to UGCAUGU | –
7 | B7 | 0.102 KA relative to UGCAUGU | –
8 | B8 | 0.0608 KA relative to UGCAUGU | –
9 | B9 | 0.0633 KA relative to UGCAUGU | –
10 | B10 | 0.0706 KA relative to UGCAUGU | –
11 | B11 | 0.15 KA relative to UGCAUGU | –
12 | B12 | 0.407 KA relative to UGCAUGU | –
13 | B13 | 0.0792 KA relative to UGCAUGU | –
14 | B14 | 0.112 KA relative to UGCAUGU | –
15 | B15 | 0.108 KA relative to UGCAUGU | –
16 | B16 | 0.101 KA relative to UGCAUGU | –

Row | Binder | binding signal [1] | binding signal [2]
17 | B17 | 0.24 KA relative to UGCAUGU | –
18 | B18 | 0.0948 KA relative to UGCAUGU | –
19 | B19 | 0.186 KA relative to UGCAUGU | –
20 | B20 | 0.06 KA relative to UGCAUGU | –
21 | B21 | 0.139 KA relative to UGCAUGU | –
22 | B22 | 0.0789 KA relative to UGCAUGU | –
23 | B23 | 0.0797 KA relative to UGCAUGU | –
24 | B24 | 0.075 KA relative to UGCAUGU | –
25 | B25 | 0.115 KA relative to UGCAUGU | –
26 | B26 | 0.0953 KA relative to UGCAUGU | –
27 | B27 | 0.0916 KA relative to UGCAUGU | –
28 | B28 | 0.0627 KA relative to UGCAUGU | –
29 | UACAUGU (ssRNA) | – | 2140 nM
30 | B29 | 0.0484 KA relative to UGCAUGU | –
31 | B30 | 0.217 KA relative to UGCAUGU | –
